Source: publication PMC8970588
No constants are given. Whether binding was seen depends on the method and setting. For part of these data: Binding seen in cells or lysates may run through a third protein. Some results given as binding are weak or reduced against the parent protein; the word gives no strength. For part of these data: Tags and fused reporters may be left off the sequences shown. Values belong to the molecule of their own block, whether it stands above or below them.

Amino acid sequences for entries named in this document (tags omitted). A change or cut given only in a name is not applied to a line headed by its entry.
UniProt P10664: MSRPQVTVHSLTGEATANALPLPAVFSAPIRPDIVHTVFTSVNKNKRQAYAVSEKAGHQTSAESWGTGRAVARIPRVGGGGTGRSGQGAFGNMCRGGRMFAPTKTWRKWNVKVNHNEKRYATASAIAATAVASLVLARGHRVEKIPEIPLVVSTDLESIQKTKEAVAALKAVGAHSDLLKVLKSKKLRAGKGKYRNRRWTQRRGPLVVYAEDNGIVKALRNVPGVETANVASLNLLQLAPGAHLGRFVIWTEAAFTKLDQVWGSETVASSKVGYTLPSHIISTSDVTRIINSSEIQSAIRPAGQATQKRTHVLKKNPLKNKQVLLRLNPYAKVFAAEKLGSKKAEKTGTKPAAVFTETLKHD

Legend:
[1] = biological target: T1, full-length Acl4, yeast two-hybrid fusion (S. cerevisiae) (UniProt Q03771); assay: two-hybrid; reporter strain PJ69-4A; bait fused to Gal4 DNA-binding domain, prey fused to Gal4 activation domain; growth on SC-Leu-Trp-His (HIS3) and SC-Leu-Trp-Ade (ADE2) plates, 3 days at 30°C
T1 sequence: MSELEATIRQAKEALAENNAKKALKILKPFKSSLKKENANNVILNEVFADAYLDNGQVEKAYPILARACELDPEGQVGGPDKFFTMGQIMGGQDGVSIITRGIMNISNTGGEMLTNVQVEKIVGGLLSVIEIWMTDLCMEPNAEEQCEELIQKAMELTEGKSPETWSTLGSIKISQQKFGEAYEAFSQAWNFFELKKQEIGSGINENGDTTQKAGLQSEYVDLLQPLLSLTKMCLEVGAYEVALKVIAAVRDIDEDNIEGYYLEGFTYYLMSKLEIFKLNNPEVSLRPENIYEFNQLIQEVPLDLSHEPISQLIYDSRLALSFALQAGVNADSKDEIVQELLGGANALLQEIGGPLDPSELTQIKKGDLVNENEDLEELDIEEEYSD

Egd2-GFP (S. cerevisiae) = biological target: T2, Egd2-GFP (S. cerevisiae) (UniProt P38879); assay: co-IP; GFP-Trap magnetic agarose beads capture the C-terminally GFP-tagged bait from yeast cell lysate (2 hr at 4°C; 50 mM Tris-HCl pH 7.5, 100 mM NaCl, 1.5 mM MgCl2, 5% glycerol, 0.1% NP-40; nine washes); C-terminally TAP-tagged prey detected by Western blot (anti-protA); strains with nontagged bait as background control
T2 sequence: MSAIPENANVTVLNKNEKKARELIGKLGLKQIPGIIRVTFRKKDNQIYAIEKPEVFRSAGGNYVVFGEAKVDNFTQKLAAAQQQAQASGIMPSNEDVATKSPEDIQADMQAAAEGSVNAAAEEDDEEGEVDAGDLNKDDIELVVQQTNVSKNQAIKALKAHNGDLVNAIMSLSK

[2] = biological target: T3, Caf130-GFP (S. cerevisiae) (UniProt P53280); assay: as above
T3 sequence: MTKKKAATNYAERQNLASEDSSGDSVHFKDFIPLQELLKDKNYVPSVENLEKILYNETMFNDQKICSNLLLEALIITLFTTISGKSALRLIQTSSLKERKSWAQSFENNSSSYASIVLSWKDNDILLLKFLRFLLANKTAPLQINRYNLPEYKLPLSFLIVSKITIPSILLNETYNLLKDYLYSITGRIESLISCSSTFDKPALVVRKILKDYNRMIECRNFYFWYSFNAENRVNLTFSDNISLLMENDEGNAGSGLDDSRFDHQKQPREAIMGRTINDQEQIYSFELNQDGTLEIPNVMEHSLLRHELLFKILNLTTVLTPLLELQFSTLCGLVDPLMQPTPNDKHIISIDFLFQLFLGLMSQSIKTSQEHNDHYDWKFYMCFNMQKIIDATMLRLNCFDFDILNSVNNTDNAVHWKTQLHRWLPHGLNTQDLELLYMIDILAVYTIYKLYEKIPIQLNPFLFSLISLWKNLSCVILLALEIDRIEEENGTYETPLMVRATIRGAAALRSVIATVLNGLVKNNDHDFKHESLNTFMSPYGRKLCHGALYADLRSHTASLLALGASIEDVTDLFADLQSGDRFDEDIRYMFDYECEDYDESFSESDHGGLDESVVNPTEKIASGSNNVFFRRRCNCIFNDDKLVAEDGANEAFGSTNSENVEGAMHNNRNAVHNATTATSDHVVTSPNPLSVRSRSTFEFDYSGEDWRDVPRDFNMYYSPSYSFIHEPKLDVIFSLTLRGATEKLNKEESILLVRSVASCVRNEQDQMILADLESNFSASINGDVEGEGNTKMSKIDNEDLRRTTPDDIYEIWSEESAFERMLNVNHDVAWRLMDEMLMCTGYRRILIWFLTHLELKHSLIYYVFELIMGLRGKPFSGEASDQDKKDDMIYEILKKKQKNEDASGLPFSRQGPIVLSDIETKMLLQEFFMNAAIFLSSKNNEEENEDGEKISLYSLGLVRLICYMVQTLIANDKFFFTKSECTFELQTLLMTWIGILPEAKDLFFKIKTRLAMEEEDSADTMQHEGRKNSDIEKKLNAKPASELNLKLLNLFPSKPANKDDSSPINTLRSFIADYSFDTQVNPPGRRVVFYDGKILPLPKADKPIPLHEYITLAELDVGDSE

[3] = biological target: Not1.154C-GFP (Not1 lacking the first 153 amino acids, C-terminally GFP-tagged) (S. cerevisiae) (UniProt P25655); assay: as above
[4] = biological target: T4, Not1 (amino acids 21–153), Caf130-interacting domain, yeast two-hybrid fusion (S. cerevisiae) (UniProt P25655); assay: two-hybrid; reporter strain PJ69-4A; bait fused to Gal4 DNA-binding domain, prey fused to Gal4 activation domain; growth on SC-Leu-Trp-His (HIS3) and SC-Leu-Trp-Ade (ADE2) plates, 3 days at 30°C
T4 sequence: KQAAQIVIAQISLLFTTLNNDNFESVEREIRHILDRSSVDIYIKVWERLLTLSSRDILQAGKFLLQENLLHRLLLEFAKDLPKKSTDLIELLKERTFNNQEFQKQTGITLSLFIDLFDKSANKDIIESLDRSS

[5] = biological target: T5, full-length Btt1, yeast two-hybrid fusion (S. cerevisiae) (UniProt P40314); assay: as above
T5 sequence: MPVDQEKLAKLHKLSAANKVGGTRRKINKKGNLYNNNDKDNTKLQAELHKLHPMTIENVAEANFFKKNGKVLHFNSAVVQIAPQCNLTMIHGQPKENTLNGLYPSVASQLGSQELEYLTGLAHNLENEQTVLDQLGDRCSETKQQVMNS

[6] = biological target: full-length Not1, yeast two-hybrid fusion (S. cerevisiae) (UniProt P25655); assay: as above
[7] = biological target: T6, full-length Cal4, yeast two-hybrid fusion (S. cerevisiae) (UniProt P47086); assay: as above
T6 sequence: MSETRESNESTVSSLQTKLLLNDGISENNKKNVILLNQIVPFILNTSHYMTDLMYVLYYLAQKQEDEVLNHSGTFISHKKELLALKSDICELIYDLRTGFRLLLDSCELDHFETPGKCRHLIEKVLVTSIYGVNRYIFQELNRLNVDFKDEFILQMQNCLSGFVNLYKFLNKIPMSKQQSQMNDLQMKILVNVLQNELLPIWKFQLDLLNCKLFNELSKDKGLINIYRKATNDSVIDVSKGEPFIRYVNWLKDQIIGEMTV

[8] = biological target: T7, Cal4 (amino acids 26–222), yeast two-hybrid fusion (S. cerevisiae) (UniProt P47086); assay: as above
T7 sequence: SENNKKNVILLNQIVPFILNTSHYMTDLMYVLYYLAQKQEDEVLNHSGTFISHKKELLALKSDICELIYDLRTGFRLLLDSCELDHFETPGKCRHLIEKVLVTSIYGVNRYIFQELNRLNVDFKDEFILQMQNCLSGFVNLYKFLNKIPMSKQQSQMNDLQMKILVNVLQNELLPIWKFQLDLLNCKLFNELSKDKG

[9] = biological target: T8, Btt1 (amino acids 38–129), yeast two-hybrid fusion (S. cerevisiae) (UniProt P40314); assay: as above
T8 sequence: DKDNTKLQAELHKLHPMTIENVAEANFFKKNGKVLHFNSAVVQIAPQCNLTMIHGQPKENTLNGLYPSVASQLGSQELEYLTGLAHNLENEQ

binding [1]: binds
Molecule: Rpl4a.W109C, yeast two-hybrid fusion (from UniProt P10664 1-362)

binding [1]: binds
Molecule: Rpl4a, yeast two-hybrid fusion (from UniProt P10664 1-362)

binding (Egd2-GFP (S. cerevisiae)): no binding
binding [2]: binds
binding [3]: no binding
B1: Cal4-TAP (protein, UniProt P47086 1-261)
chain: MSETRESNESTVSSLQTKLLLNDGISENNKKNVILLNQIVPFILNTSHYMTDLMYVLYYLAQKQEDEVLNHSGTFISHKKELLALKSDICELIYDLRTGFRLLLDSCELDHFETPGKCRHLIEKVLVTSIYGVNRYIFQELNRLNVDFKDEFILQMQNCLSGFVNLYKFLNKIPMSKQQSQMNDLQMKILVNVLQNELLPIWKFQLDLLNCKLFNELSKDKGLINIYRKATNDSVIDVSKGEPFIRYVNWLKDQIIGEMTV

binding [4]: binds
binding [5]: binds
binding [6]: binds
binding [7]: binds
binding [8]: binds
binding [9]: binds
B2: full-length Caf130, yeast two-hybrid fusion (protein, UniProt P53280 1-1122)
chain: MTKKKAATNYAERQNLASEDSSGDSVHFKDFIPLQELLKDKNYVPSVENLEKILYNETMFNDQKICSNLLLEALIITLFTTISGKSALRLIQTSSLKERKSWAQSFENNSSSYASIVLSWKDNDILLLKFLRFLLANKTAPLQINRYNLPEYKLPLSFLIVSKITIPSILLNETYNLLKDYLYSITGRIESLISCSSTFDKPALVVRKILKDYNRMIECRNFYFWYSFNAENRVNLTFSDNISLLMENDEGNAGSGLDDSRFDHQKQPREAIMGRTINDQEQIYSFELNQDGTLEIPNVMEHSLLRHELLFKILNLTTVLTPLLELQFSTLCGLVDPLMQPTPNDKHIISIDFLFQLFLGLMSQSIKTSQEHNDHYDWKFYMCFNMQKIIDATMLRLNCFDFDILNSVNNTDNAVHWKTQLHRWLPHGLNTQDLELLYMIDILAVYTIYKLYEKIPIQLNPFLFSLISLWKNLSCVILLALEIDRIEEENGTYETPLMVRATIRGAAALRSVIATVLNGLVKNNDHDFKHESLNTFMSPYGRKLCHGALYADLRSHTASLLALGASIEDVTDLFADLQSGDRFDEDIRYMFDYECEDYDESFSESDHGGLDESVVNPTEKIASGSNNVFFRRRCNCIFNDDKLVAEDGANEAFGSTNSENVEGAMHNNRNAVHNATTATSDHVVTSPNPLSVRSRSTFEFDYSGEDWRDVPRDFNMYYSPSYSFIHEPKLDVIFSLTLRGATEKLNKEESILLVRSVASCVRNEQDQMILADLESNFSASINGDVEGEGNTKMSKIDNEDLRRTTPDDIYEIWSEESAFERMLNVNHDVAWRLMDEMLMCTGYRRILIWFLTHLELKHSLIYYVFELIMGLRGKPFSGEASDQDKKDDMIYEILKKKQKNEDASGLPFSRQGPIVLSDIETKMLLQEFFMNAAIFLSSKNNEEENEDGEKISLYSLGLVRLICYMVQTLIANDKFFFTKSECTFELQTLLMTWIGILPEAKDLFFKIKTRLAMEEEDSADTMQHEGRKNSDIEKKLNAKPASELNLKLLNLFPSKPANKDDSSPINTLRSFIADYSFDTQVNPPGRRVVFYDGKILPLPKADKPIPLHEYITLAELDVGDSE

binding [2]: binds
B3: Btt1-TAP (protein, UniProt P40314 1-149)
chain: MPVDQEKLAKLHKLSAANKVGGTRRKINKKGNLYNNNDKDNTKLQAELHKLHPMTIENVAEANFFKKNGKVLHFNSAVVQIAPQCNLTMIHGQPKENTLNGLYPSVASQLGSQELEYLTGLAHNLENEQTVLDQLGDRCSETKQQVMNS
